Legend:
293-hTMEFF1 cells = experiment: Flow based antibody internalization assay; format: cell-based, human; conditions: 293-hTMEFF1 fixed with PFA, antibody 1 ug/ml, 30-120 min
Experimental: For Flow based internalization assay, 293-hTMEFF1 cells were collected and either fixed with 4% paraformaldehyde (PFA) for 20 minutes at 37° C. or kept live on ice. Cells were then incubated on ice for 40 minutes with anti-TMEFF1 antibody at 1 ug/ml, washed 2× with ice cold PBS, resuspended in complete warm media and incubated at 37° C. for 30, 60 or 120 minutes. Live cells were then fixed at those time points, washed 2× with PBS and labeled with fluorescent conjugated secondary antibody for 30 minutes on ice.
Antibody mediated TMEFF1 internalization was evaluated by Flow cytometry with five human anti-TMEFF1 antibodies in 293-hTMEFF1 cells. Fixed cells were treated with the antibody as a control of antibody loss due to detachment rather than internalization which would result in reduce signal. Thus a constant signal over time in fixed cells and a loss of signal in live cells would indicate antibody internalization. […] In live cells, it was observed that most antibodies show about a 50% internalization by 30 min of treatment (FIG. 1B).

recombinant TMEFF1 = target: T1, recombinant TMEFF1 (Homo sapiens, UniProt Q8IYR6); experiment: Binding competition binning (Octet); conditions: seven antibodies, 3 bins
T1 construct: generated to secrete the ECD from CHO cells to assist with biophysical evaluations; His tag (C); made in house; host or cells: CHO (ExpiCHO)
T1 sequence (Q8IYR6 40-330 limits assumed): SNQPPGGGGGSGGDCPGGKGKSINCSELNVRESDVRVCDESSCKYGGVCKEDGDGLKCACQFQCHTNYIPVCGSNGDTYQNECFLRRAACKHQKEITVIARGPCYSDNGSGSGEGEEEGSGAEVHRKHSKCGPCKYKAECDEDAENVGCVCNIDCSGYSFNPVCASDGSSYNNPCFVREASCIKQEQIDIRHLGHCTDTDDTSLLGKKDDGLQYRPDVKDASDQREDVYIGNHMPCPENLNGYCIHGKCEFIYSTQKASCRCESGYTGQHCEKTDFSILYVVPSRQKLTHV
Experimental: Binding competition among different antibodies was determined using a real-time, interferometry assay on an Octet Red™ instrument with Protein A-conjugated biosensors. To assess whether two antibodies competed for binding to a recombinant TMEFF1 protein, the assay was performed as follows. Protein A biosensors were first submerged into wells containing 10 ug/mL of individual monoclonal antibodies for 5 minutes. Following the capture step, the biosensors were dipped briefly (15 seconds) into buffer and then any unoccupied sites on the biosensor were saturated by submerging them for 5 minutes into wells containing 100 ug/mL of an irrelevant monoclonal antibody. The Octet biosensors were then dipped briefly (15 seconds) in buffer before immersion for 1 minute into wells containing recombinant TMEFF1. The biosensors were dipped briefly (15 seconds) in buffer before immersion for 1 minute into wells containing a second recombinant antibody.
For the control case where the second antibody was the same as the first, there was no increase in signal, because there was no additional binding to the recombinant target.
For the control case where buffer was used instead of the first antibody, no recombinant target bound the non-quenching antibody on the biosensor and no second antibody bound the biosensor. […]

[1] = test system: hTMEFF1-ECD recombinant deletion mutants; experiment: Binding domain determination with hTMEFF1-ECD deletion mutants (Octet); set-up: species or system human; key: FS1—follistatin domain 1; FS2—follistatin domain 2; conditions: full length TMEFF1 ECD vs ΔFS1, ΔFS2, ΔFS1&FS2
Excerpt: TMEFF1 recombinant proteins expressing 3 different deletion mutants, AFS1 (AFollistatin Domain 1), AFS2 (AFollistatin Domain 2) or AFS1&FS2 were used to identify binding domains among different antibodes using an Octet Red instrument with Anti-Penta-His (HIS 1K) biosensors. Expression of the 3 deletion mutants was confirmed by WB analysis. 100 ngs of purified TMEFF1 ECD was run along with unpurified supernatant of transfected CHO cells with the different deletion mutants. HIS 1K biosensors were loaded by submerging the biosensors into wells containing 10 ug/ml of full length TMEFF1 or one of 3 different deletion mutants (AFS1, AFS2 or AFS1&FS2) for 60 seconds. Following the loading step, the biosensors were then dipped for 30 seconds in PBS before immersion for 30 seconds in 200 ul of unpurified recombinant antibodies for 30 seconds. The biosensors were then dipped briefly (30 seconds) in PBS to observe any dissociation. Samples were determined to show binding or no binding by comparing to a control well that contained no recombinant antibody. Differential binding to the deletion mutants allowed for determination of binding sites on TMEFF1 recombinant protein. For cases where the antibody bound all 3 recombinant proteins, the binding is outside of the deleted domains. For the case where binding is observed only on full length TMEFF1 and AFS2, the antibody is binding in the ΔFS1 domain.
26 of the identified antibodies were checked for epitope domain binding by Octet™ using the hTMEFF1-ECD recombinant deletion mutants (see Table 7, below).

H526 xenografts = experiment: In vivo efficacy in H526 xenograft model; set-up: species or system Nu/Nu mice
Experimental: Human monoclonal antibodies were conjugated to the valine-alanine-pyrrolobenzodiazepine, MA-PEG8-VA-PAB-SG3199 (PBD) as previously described (Stefano J. E., Busch M., Hou L., Park A., Gianolio D. A. (2013) Micro- and Mid-Scale Maleimide-Based Conjugation of Cytotoxic Drugs to Antibody Hinge Region Thiols for Tumor Targeting. In: Ducry L. (eds) Antibody-Drug Conjugates. Methods in Molecular Biology (Methods and Protocols), vol 1045. Humana Press, Totowa, N.J.). […] After this incubation, the entire mixture was run over a gel filtration column to remove free drug. A fraction of the eluate was then used for concentration and DAR determination using A280 and HIC respectively. The drug to antibody ratio for 30C10-PBD was 1.7. The drug to antibody ratio for control human IgG1-PBD (Ctrl) was 3.0.
For efficacy studies with antibody drug conjugates, 6-8 weeks old female Nu/Nu mice (Taconic) were inoculated subcutaneously in the dorsal right flank with 2.5 million H526 cells in 1× PBS with equal volume of Matrigel (Corning, Cat #356234). When tumor volumes reached 200-400 mm3 (day 0), animals were randomized into 3 groups of 6-7 each and administered 3× IV injections every 4 days (IV/Q4Dx3) of anti-TMEFF1-PBD or hIgG-PBD control antibody at 1 mg/kg or PBS (vehicle) control. Tumor volumes were determined using digital calipers (Fred V. Fowler Company, Inc.) using the formula (length×width^2)×0.52. Measurement was performed twice weekly for the first 30 days after initial dosing, then once a week until the end of the study.
Each animal was euthanized when its tumor reached the endpoint size of 1500 mm^3 or on the final day of the study (Day 98), whichever came first. The time to endpoint (TTE) for each mouse was defined as the time elapsed for an animal to be removed from the study. […] Animals classified as NTR (nontreatment-related) deaths due to unknown causes were excluded from TTE calculations (and all further analyses).
Treatment outcome was determined from percent tumor growth inhibition (TGI) and tumor growth delay (TGD). TGI is defined as the percent decrease in average tumor volume of treated versus control group and calculated from the following equation:
[formula] Where TVtx Day X=Average tumor volume of treated group on Day X; TVtx Day 0=Average tumor volume of treated group on Day 0; TVveh Day X=Average tumor volume of control group on Day X; TVveh Day 0=Average tumor volume of control group on Day 0.
TGI of the treatment group was assessed when 50% of animals in control group has reached their TTE, which is on Day 15 on this study.
TGD or T-C is defined by difference between median TTE of treated (T) versus control (C) groups and calculated from the following equation: TGD=Median of TTEtx−Median of TTEveh Where Median of TTEtx=median of TTE of treated group; Median of TTEveh=median of TTE of vehicle group.
Mice were monitored for regression responses. An animal with a complete tumor regression at the termination of the study was classified as a tumor free survivor (TFS).
Animals were weighed weekly for the study. The mice were observed frequently for overt signs of any adverse, treatment-related side effects, and clinical signs of toxicity were recorded when observed. Acceptable toxicity is defined as a group mean body-weight loss of less than 15% during the study and not more than one treatment-related (TR) death among ten treated animals. Any dosing regimen that results in greater toxicity is considered above the maximum tolerated dose (MTD). […]

B1: 30C10: human anti-TMEFF1 IgG1 antibody; VH SEQ ID NO: 38, VL SEQ ID NO: 41 (antibody, V domains shown)
VH: QVQLVESGGGVVQPGRSLRLSCAASGFTFSSYGMHWVRQAPGKGLEWVAVIWYDGSDKYYADSVKGRFTISRDNSKKTLYLQMNSLRAEDTAVYFCARETIFRGLTITFFDHWGQGTLVTVSS
VL: EIVMTQSPATLSVSPGERATLSCRASQSVSSNLAWYQQKPGQAPRLLIYGASTRATGIPARFSGSGSGTEFTLTISSLQSEDFAVYYCQQYNNWPPTFGGGTKLEIK
293-hTMEFF1 cells
  Cell surface binding in fixed cells over the duration of the assay: consistent cell surface binding in fix cells
Recombinant TMEFF1
  Competition binning (epitope bin): compete with each other and bind FS1
[1]
  Binding region (epitope domain binding): FS1

B2: 30C10-PBD: antibody 30C10 conjugated to MA-PEG8-VA-PAB-SG3199 (Tesirine PBD), drug to antibody ratio 1.7 (conjugate)
VH: QVQLVESGGGVVQPGRSLRLSCAASGFTFSSYGMHWVRQAPGKGLEWVAVIWYDGSDKYYADSVKGRFTISRDNSKKTLYLQMNSLRAEDTAVYFCARETIFRGLTITFFDHWGQGTLVTVSS
VL: EIVMTQSPATLSVSPGERATLSCRASQSVSSNLAWYQQKPGQAPRLLIYGASTRATGIPARFSGSGSGTEFTLTISSLQSEDFAVYYCQQYNNWPPTFGGGTKLEIK
H526 xenografts; 1 mg/kg IV Q4Dx3, 98 day study
  efficacy and survival in H526 xenograft: tumor regression, excellent efficacy and survival advantage over the control groups
  mice body weight loss: Little or no mice body weight loss
H526 xenografts; Day 98, 1 mg/kg IV Q4Dx3
  tumor free survivor (TFS) at the end of the study: 5 out of 6
H526 xenografts; compared to hIgG-PBD control group at Day 15, 1 mg/kg IV Q4Dx3
  TGI: 123.8%
H526 xenografts; median TTE treated minus control, 1 mg/kg IV Q4Dx3
  TGD: 83 days

B3: 45D8: human anti-TMEFF1 IgG1 antibody; VH SEQ ID NO: 129, VL SEQ ID NO: 133 (antibody, V domains shown)
VH: EVQLLESGGGLVQPGGSLRLSCAASGFTFSSYAMSWVRQAPGKGLEWVSTISGSGGSTYYADSVKGRFTISRDNSKNTLYLQMNSLRAEDTAIYYCAKFGVRGVIITNWFDPWGQGTLVTVSS
VL: EIVMTQSPATLSVSPGERATLSCRASQSVSSNLAWYQQKPGQAPRLLIYGASTRATGIPARFSGSGSGTEFTLTISSLQSEDFAVYYCQQYNNWPLTFGGGTKLEIK
[1]
  Binding region (epitope domain binding): FS1

B4: M10: human anti-TMEFF1 IgG1 antibody; VH SEQ ID NO: 124, VL SEQ ID NO: 128 (antibody, V domains shown)
VH: QVQLVESGGGGVQPGRSLRLSCAASGFTFSRYGMHWVRQAPGKGLEWVAVIWYDGSDEYYADSVKGRFTISRDNSKNTLYLQMNSLRAEDTAVYYCARETMGRGIIISYFDYWGQGTPVTVSS
VL: EIVMTQSPATLSVSPGERATLSCRASQSVSSNLAWYQQKPGQAPRLLIYGASTRATGIPARFSGSGSGTEFTLTISSLQSEDFAVYYCQQYNNWPPTFGQGTKLEIK
[1]
  Binding region (epitope domain binding): FS1

From patent publication US11312769B2, “Anti-TMEFF1 antibodies and antibody drug conjugates” (Bluefin BioMedicine, Inc., priority 2017, dated 2022)
